According to US20160192643A1, “NEW ANTIFUNGAL COMPOSITION FOR TREATMENT OF SOIL” (CERADIS B.V., priority 2013, published 2016):

Tested on: Pythium aphanidermatum
Assay: Polyelectrolyte formulation against Pythium aphanidermatum in Chrysanthemum soil
Details: end of the trial, after 44 days; percentage of the bottom of the crates covered with roots

C[C@@H]1C/C=C/C=C/C=C/C=C/[C@H](O[C@@H]2O[C@H](C)[C@@H](O)[C@H](N)[C@@H]2O)C[C@@H]2O[C@](O)(C[C@@H](O)C[C@H]3O[C@@H]3/C=C/C(=O)O1)C[C@H](O)[C@H]2C(=O)O [Natamycin, natamycin]
rooting in percentage at the bottom side of the crates: 8.8%
